Results published in paper PMC6919601, “Identification of Plasmodium dipeptidyl aminopeptidase allosteric inhibitors by high throughput screening” (PLoS ONE, 2019).
Screen size: about 110,000 compounds; about 230 (0.21%) showed an effect of 50% or more. The list shows a part of the results.

molecular target: DPAP1 (Plasmodium falciparum, UniProt Q8IIJ9); experiment: primary screen, percent inhibition; read by cleavage of a fluorogenic dipeptide substrate; higher = more effect of the substance; parameters: species or system P. falciparum D10 trophozoite lysates; single well
Sequence (Q8IIJ9 whole entry, looked up): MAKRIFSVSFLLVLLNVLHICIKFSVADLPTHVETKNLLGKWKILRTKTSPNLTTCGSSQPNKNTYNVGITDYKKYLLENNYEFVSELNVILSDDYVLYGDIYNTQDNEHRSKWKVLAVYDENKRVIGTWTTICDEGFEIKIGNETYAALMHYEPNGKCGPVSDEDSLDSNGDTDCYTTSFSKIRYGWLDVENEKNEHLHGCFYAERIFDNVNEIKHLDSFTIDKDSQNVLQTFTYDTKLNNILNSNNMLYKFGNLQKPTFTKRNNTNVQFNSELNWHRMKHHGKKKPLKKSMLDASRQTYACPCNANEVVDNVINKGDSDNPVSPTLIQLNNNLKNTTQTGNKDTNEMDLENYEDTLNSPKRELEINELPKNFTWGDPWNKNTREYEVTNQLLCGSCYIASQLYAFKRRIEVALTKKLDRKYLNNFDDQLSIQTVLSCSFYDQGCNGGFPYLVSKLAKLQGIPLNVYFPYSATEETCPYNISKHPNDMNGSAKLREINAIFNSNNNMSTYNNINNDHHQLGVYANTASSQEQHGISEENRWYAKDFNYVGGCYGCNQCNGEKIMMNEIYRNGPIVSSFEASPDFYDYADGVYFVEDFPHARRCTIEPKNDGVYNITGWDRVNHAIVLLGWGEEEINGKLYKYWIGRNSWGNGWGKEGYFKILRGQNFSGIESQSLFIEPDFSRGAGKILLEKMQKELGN
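Also: 30 min substrate incubation versus DMSO and 10 µM JCP410 controls.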

Structure (SMILES) | % Inhibition @ 10 uM
CCCCCNC(=O)C1CC(C)=C(C)CC1C(=O)O (stereo not shown) | -8.3%
Cc1c(CNCCc2cccs2)c(C(=O)O)c(C)n1Cc1ccccc1F | -5.49%
CN1CC[C@](O)(c2ccccc2)[C@H]2CCCC[C@H]21 | 2.47%
O=C(O)CCc1nc2ncccc2c(=O)n1Cc1ccccc1Cl | -0.72%
CCn1c(C)c(C2N3CC4(C)CN2CC(c2ccccc2)(C3)C4=O)c2ccccc21 (stereo not shown) | -3.24%
CCOC(=O)c1cc2c(=O)n3ccccc3nc2n(C(C)C)/c1=N\C(=O)c1ccc(F)cc1 | -1.3%
CCC1(C)[N+]([O-])=C(C)C(c2ccccc2)=[N+]1[O-] (stereo not shown) | 1.63%
CC(=O)Nc1ccc(NC(=O)c2ccco2)cc1 | -4.26%
CCOc1ccc(CNC(=O)C2=C(C)C(=O)OC23CCN(S(=O)(=O)CC)CC3)cc1 | -1.95%
CC1(C)CC2CC(C)(CN2C2CC(=O)N(c3ccc(Br)cc3)C2=O)C1 (stereo not shown) | -5.69%
CC(C)CCNC(=O)C1CCN(S(C)(=O)=O)CC1 | 3.66%
Cn1c(=O)c2c(nc(SC(c3ccccc3)c3ccc(Cl)cc3)n2C)n(C)c1=O (stereo not shown) | -2.37%
O=C(CCCOc1ccc(Cl)cc1Cl)NC1CCCCCC1 | 3.48%
COc1ccc(C(=O)NCc2cn3cccc(C)c3n2)c(OC)c1 | 0.00665%
Cc1ccc(-n2nc(C)c3c2OC(N)=C(C#N)C3c2ccc(F)cc2F)cc1 (stereo not shown) | -4.57%
COc1cc(OC)cc(OCC(O)Cn2c(C)nc3ccccc32)c1 (stereo not shown) | 5.5%
COc1cc(/C=C2/C(=N)N3OC(C)=CC3=NC2=O)ccc1OCC(C)C | 2%
CCN1C(=O)CN(c2ccccc2)C1=S | -4.06%
COc1ccc(C[C@H](NC(=O)c2ccccc2)C(=O)NCC#N)cc1 | -0.214%
Cc1nn(C(C)C(=O)NCCN2CCCCC2C)c(=O)c2c1sc1ccccc12 (stereo not shown) | -3.1%
O=C(NCc1cccnc1)C1CCCN(c2ncnc3c2nc2n3CCCCC2)C1 (stereo not shown) | 2.13%
COCC(C)NC(=O)c1cnn2c(C(F)F)cc(-c3ccc(C)cc3)nc12 (stereo not shown) | 3.88%
CC(C)C[C@H](NC(=O)c1ccc(NC(=O)Cc2cccnc2)cc1)C(=O)NCC#N | -0.778%
CCOC(=O)N1CCN(C(=O)CSc2nnc(COc3ccc(Cl)cc3)o2)CC1 | 3.51%
CCn1ccc(C(=O)Nc2sc3c(c2C#N)CCC3)n1 | -1.37%

Structure (SMILES) | % Inhibition @ 10 uM
COc1cc(SC)ccc1C(=O)NCCOc1ccc(C)c(C)c1 | -1.84%
CCc1ccc(NC(=O)CCCc2ccc(OC)cc2)cc1 | -6.77%
COCCCNC(=O)CCc1nnc2ccc(N3CCC(C)CC3)nn12 | -4.02%
COc1ccc(-c2noc(CNC(=O)c3cccc(F)c3)n2)cc1 | -2.99%
CCCOc1ccc(-c2cc(C(=O)NCC3CCCO3)c3ccccc3n2)cc1 (stereo not shown) | 2.54%
CC1CCC(NC(=O)c2ccc(CS(=O)(=O)Cc3ccccc3F)o2)CC1 (stereo not shown) | 3.93%
Cc1c(CNC(=O)C2CC2c2ccc(C(C)(C)C)cc2)cnn1C (stereo not shown) | -5.41%
COc1ccc(CCNCc2c(C(=O)O)c(C)n(Cc3ccc(F)cc3)c2C)cc1OC | -0.23%
O=C(COc1ccc(Br)cc1)Nc1cccc(O)c1 | -8.3%
CCOC(=O)N1CCC(NC(C)COC)CC1 (stereo not shown) | 4.74%
CC1CCC(N(CCO)Cc2ccccc2)CC1 (stereo not shown) | -0.0953%
Cc1sc(NC(=O)CC23CC4CC(CC(C4)C2)C3)c(C(N)=O)c1-c1ccccc1 | 4.96%
Cc1ccc(Cl)cc1NC(=O)C1CCCCC1 | -2.36%
COc1ccc(CN(C)S(=O)(=O)c2nnc(NC(=O)c3cccs3)s2)cc1OC | -3.99%
CC(=O)OC1CCC2(C)C(=CCC3C2CCC2(C)C(C(=O)O)CCC32)C1 (stereo not shown) | 2.62%
Cc1ccc(CS(=O)(=O)CCC(=O)NCCC2=CCCCC2)cc1 | 0.514%
COc1ccccc1C(=O)Nc1cccc(-c2nc3ncccc3o2)c1 | -3.71%
CCN(CC)CCOc1ccc(C23CC4CC(CC(C4)C2)C3)cc1 | 1.33%
Cc1oc2cc(OC(C)C)ccc2c(=O)c1-c1ccccc1 | 2.55%
CCc1c(O)n(C(C)CC)c(SCc2ccccc2)nc1=O (stereo not shown) | 1.9%
CCOc1ccc2c(=O)c(Oc3ccc(F)cc3)c(C)oc2c1 | 6.41%
COC(=O)c1cc(S(=O)(=O)NCC2CCN(CCc3cccs3)CC2)cn1C | -3.57%
COc1cccc(C(=O)Nc2cccc(OCC(=O)c3ccc(F)cc3)c2)c1 | 3.8%
Brc1ccc(CSc2nnc(-c3ccccc3)o2)cc1 | -3.04%
